This continues a long series; more values of the same kind are listed elsewhere.
Assay: Tissue distribution by quantitative whole-body autoradiography (QWBA)
Assay type: in vivo, male Sprague Dawley and Long-Evans rats
Details: 15 mg/kg IV
Experimental: The study utilized 4 groups of male SD rats (albino), and 3 groups of male LE rats (pigmented); a total of 39 rats. All animals were obtained from Hilltop Lab Animals, Inc. (Scottdale, Pa.). […] Rats in Group 5 were administered a single 2-h IV infusion of [^14C]brincidofovir at a target dose of 2 mg/kg. […] Three dosing formulations (one for high dose IV, one for low dose IV, and one for PO dose) were prepared at QPS on the day of dosing. The IV formulation for Groups 1, 2, 3, and 4 contained a vehicle of 10 mM sodium phosphate buffer in 5% dextrose solution at pH 8.0(±0.1).
Each animal, at their respective termination time points, was euthanized for QWBA analysis immediately after blood collection. One rat per time point per Group was euthanized as listed below.
The blood samples were maintained on wet ice (approximately 4° C.) and then centrifuged to obtain plasma within 1 h of the blood collection time. Centrifuge settings were recorded in the study notebook. Duplicate aliquots of plasma (0.050 mL) were analyzed for radioactivity using direct counting by LSC, and residual plasma was stored at approximately −70° C. and was saved for possible future analysis under a separate study protocol. Residual red blood cells were discarded as radioactive waste.
The pinna, distal limbs, hair, and tail were removed from each frozen carcass and each frozen carcass was embedded in an aqueous suspension of approximately 2% (w/v) carboxymethylcellulose and frozen into a block. The blocks were stored at approximately −20° C. prior to sectioning. Each blocked carcass was mounted on the object stage of a cryomicrotome (Leica CM3600 Cryomacrocut, Nussloch, Germany and Vibratome 9800, St. Louis, Mo.) maintained at approximately −20° C. and internal standards (3), which were plasma fortified with [^14C]-glucose at one concentration (approximately 0.05 μCi/mL), were placed into the frozen blocks, prior to sectioning, and were used for section thickness quality control. A number of whole-body sections (approximately 40 μm thick) were taken in the sagittal plane at various levels of interest using a whole-body cryomicrotome set at −20° C. Sagittal sections (20-50 μm thick) of frozen carcasses were exposed to phosphor imaging plates. Regions of images in tissues were converted to concentrations using standards. All of the major tissues, organs, and biological fluids were represented.
Tissue concentration data was determined for the following tissues and/or contents: adipose (brown and white), adrenal gland, bile (in duct), blood (cardiac), bone, bone marrow, brain (cerebrum, cerebellum, medulla), cecum (and contents), large intestine (and contents), epididymis, esophagus, eye (uvea and lens), Harderian gland, heart, kidney (cortex and medulla), liver, lung, lymph node, pancreas, pituitary gland, prostate gland, salivary gland, seminal vesicles, skeletal muscle, skin (pigmented and non-pigmented), small intestine (and contents), stomach (gastric mucosa and contents), spleen, spinal cord, testis, thymus, thyroid, and urinary bladder (and contents).
The imaging plate and sections were placed in light-tight exposure cassettes, in a copper-lined lead safe, for a 4-day exposure at room temperature. […] Quantification was performed by image densitometry using MCD image analysis software (v. 7.0, Interfocus Imaging Ltd) and a standard curve constructed from the integrated response [i.e., Molecular Dynamics Counts per square millimeter (MDC/mm^2)] and the nominal concentrations of the ^14C-calibration standards. The concentrations of radioactivity were expressed as the μg equivalents of [^14C]brincidofovir per gram sample (μg equiv/g). A lower limit of quantification (LLOQ) was applied to the data (See section 6.7.4).
Tissue concentrations that fell below the LLOQ were identified as being below the quantification limit (BQL). Tissue areas that were not visualized on autoradiographic images were identified as no sample (NS) and reported as BQL.

In the case of `CCCCCCCCCCCCCCCCOCCCOP(=O)(O)CO[C@H](CO)Cn1ccc(N)nc1=O` [[^14C]brincidofovir], the Concentration of radioactivity (Epididymis, 1 h, LE rat) is reported as 0.828 μg equiv/g tissue, the Concentration of radioactivity (Epididymis, 2 h, LE rat) is reported as 1.654 μg equiv/g tissue and the Concentration of radioactivity (Epididymis, 4 h, LE rat) is reported as 1.795 μg equiv/g tissue. It also gave a Concentration of radioactivity (Epididymis, 8 h, LE rat) of 0.821 μg equiv/g tissue, a Concentration of radioactivity (Epididymis, 24 h, LE rat) of 0.362 μg equiv/g tissue and a Concentration of radioactivity (Epididymis, 72 h, LE rat) of 0.243 μg equiv/g tissue. The Concentration of radioactivity (Epididymis, 96 h, LE rat) was 0.204 μg equiv/g tissue, the Concentration of radioactivity (Epididymis, 168 h, LE rat) was 0.129 μg equiv/g tissue and the Concentration of radioactivity (Epididymis, 840 h, LE rat) was “BQL (BQL = Value is below the LLOQ)”. For the same molecule, the Concentration of radioactivity (Esophagus, 1 h, LE rat) was 1.750 μg equiv/g tissue, the Concentration of radioactivity (Esophagus, 2 h, LE rat) was 2.456 μg equiv/g tissue and the Concentration of radioactivity (Esophagus, 2 h, SD rat) was 3.567 μg equiv./g. For the same molecule, the Concentration of radioactivity (Esophagus, 4 h, LE rat) was 1.803 μg equiv/g tissue, the Concentration of radioactivity (Esophagus, 8 h, LE rat) was 1.747 μg equiv/g tissue and the Concentration of radioactivity (Esophagus, 24 h, LE rat) was 0.377 μg equiv/g tissue. It also gave a Concentration of radioactivity (Esophagus, 24 h, SD rat) of 0.572 μg equiv./g, a Concentration of radioactivity (Esophagus, 72 h, LE rat) of 0.357 μg equiv/g tissue and a Concentration of radioactivity (Esophagus, 96 h, LE rat) of 0.098 μg equiv/g tissue. The Concentration of radioactivity (Esophagus, 168 h, LE rat) was 0.041 μg equiv/g tissue, the Concentration of radioactivity (Esophagus, 168 h, SD rat) was 0.043 μg equiv./g and the Concentration of radioactivity (Esophagus, 840 h, LE rat) was “BQL (BQL = Value is below the LLOQ)”. The Concentration of radioactivity (Eye (lens), 1 h, LE rat) was 0.039 μg equiv/g tissue, the Concentration of radioactivity (Eye (lens), 2 h, LE rat) was 0.077 μg equiv/g tissue and the Concentration of radioactivity (Eye (lens), 2 h, SD rat) was “BQL (BQL = Value is below the LLOQ)”. For the same molecule, the Concentration of radioactivity (Eye (lens), 4 h, LE rat) was “BQL (BQL = Value is below the LLOQ)”, the Concentration of radioactivity (Eye (lens), 8 h, LE rat) was “BQL (BQL = Value is below the LLOQ)” and the Concentration of radioactivity (Eye (lens), 24 h, LE rat) was “BQL (BQL = Value is below the LLOQ)”. The Concentration of radioactivity (Eye (lens), 24 h, SD rat) was “BQL (BQL = Value is below the LLOQ)”, the Concentration of radioactivity (Eye (lens), 72 h, LE rat) was “BQL (BQL = Value is below the LLOQ)” and the Concentration of radioactivity (Eye (lens), 96 h, LE rat) was “BQL (BQL = Value is below the LLOQ)”. The Concentration of radioactivity (Eye (lens), 168 h, LE rat) was “BQL (BQL = Value is below the LLOQ)”, the Concentration of radioactivity (Eye (lens), 168 h, SD rat) was “BQL (BQL = Value is below the LLOQ)” and the Concentration of radioactivity (Eye (lens), 840 h, LE rat) was “BQL (BQL = Value is below the LLOQ)”. It also gave a Concentration of radioactivity (Eye (uveal tract), 1 h, LE rat) of 0.875 μg equiv/g tissue, a Concentration of radioactivity (Eye (uveal tract), 2 h, LE rat) of 1.411 μg equiv/g tissue and a Concentration of radioactivity (Eye (uveal tract), 2 h, SD rat) of 2.342 μg equiv./g. The Concentration of radioactivity (Eye (uveal tract), 4 h, LE rat) was 1.412 μg equiv/g tissue, the Concentration of radioactivity (Eye (uveal tract), 8 h, LE rat) was 0.925 μg equiv/g tissue and the Concentration of radioactivity (Eye (uveal tract), 24 h, LE rat) was 0.452 μg equiv/g tissue. The Concentration of radioactivity (Eye (uveal tract), 24 h, SD rat) was 0.469 μg equiv./g, the Concentration of radioactivity (Eye (uveal tract), 72 h, LE rat) was 0.322 μg equiv/g tissue and the Concentration of radioactivity (Eye (uveal tract), 96 h, LE rat) was 0.188 μg equiv/g tissue. The Concentration of radioactivity (Eye (uveal tract), 168 h, LE rat) was “BQL (BQL = Value is below the LLOQ)”, the Concentration of radioactivity (Eye (uveal tract), 168 h, SD rat) was 0.095 μg equiv./g and the Concentration of radioactivity (Eye (uveal tract), 840 h, LE rat) was “BQL (BQL = Value is below the LLOQ)”. It also gave a Concentration of radioactivity (Harderian Gland, 1 h, LE rat) of 0.897 μg equiv/g tissue, a Concentration of radioactivity (Harderian Gland, 2 h, LE rat) of 2.049 μg equiv/g tissue and a Concentration of radioactivity (Harderian Gland, 4 h, LE rat) of 1.476 μg equiv/g tissue. It also gave a Concentration of radioactivity (Harderian Gland, 8 h, LE rat) of 1.284 μg equiv/g tissue, a Concentration of radioactivity (Harderian Gland, 24 h, LE rat) of 0.665 μg equiv/g tissue and a Concentration of radioactivity (Harderian Gland, 72 h, LE rat) of 1.098 μg equiv/g tissue. The Concentration of radioactivity (Harderian Gland, 96 h, LE rat) was 0.536 μg equiv/g tissue, the Concentration of radioactivity (Harderian Gland, 168 h, LE rat) was 0.403 μg equiv/g tissue and the Concentration of radioactivity (Harderian Gland, 840 h, LE rat) was “BQL (BQL = Value is below the LLOQ)”.

Source: patent publication US20170368082A1, “FORMULATIONS OF BRINCIDOFOVIR” (priority 2016, published 2017)
